In the supplement of paper PMC7125110:
± gives the standard error. For some of these results: Variants at the background level are over-represented here.

B1: glmS ribozyme (parent)
chain: AUAAAAGCGCCAGAACUACAGAAAUGUAGUUGACGAGGAGGAGGUUUAUCGAAUUUUCGGCGGAUGCCUCCAAA

Experiments:
Settings in all cases: with glucosamine-6-phosphate
glucosamine-6-phosphate [1] = variants of: B1; test: self-cleavage kobs at 640 uM GlcN6P; higher = faster cleavage; RNA array
Outline: (§1)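 Glucosamine-6-phosphate (40 μM to 10 mM) in HEPES/KCl/Mg(OAc)2 buffer was flowed over sequenced MiSeq chips, and tiles were imaged over ~14 h. Barcoded ribozyme variants there had been transcribed in situ by E. coli RNA polymerase and were tracked through a hybridised Cy3 probe at 37 °C. One- or two-exponential decay fits to per-tile medians, normalised to baseline and to non-cleaving reference variants, gave kobs. kcat and KM came from weighted Michaelis–Menten fits across concentrations.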

glucosamine-6-phosphate [2] = variants of: B1; test: self-cleavage kobs at 2500 uM GlcN6P; higher = faster cleavage; RNA array
Outline: as §1

glucosamine-6-phosphate [3] = variants of: B1; test: self-cleavage kobs at 160 uM GlcN6P; higher = faster cleavage; RNA array
Outline: as §1

glucosamine-6-phosphate [4] = variants of: B1; test: self-cleavage kobs at 10000 uM GlcN6P; higher = faster cleavage; RNA array
Outline: as §1

Row | Variant | self-cleavage kobs at 640 uM GlcN6P (glucosamine-6-phosphate [1]) [s⁻¹] | self-cleavage kobs at 2500 uM GlcN6P (glucosamine-6-phosphate [2]) [s⁻¹] | self-cleavage kobs at 160 uM GlcN6P (glucosamine-6-phosphate [3]) [s⁻¹] | self-cleavage kobs at 10000 uM GlcN6P (glucosamine-6-phosphate [4]) [s⁻¹]
1 | G37A A42G G43U | < 1e-05 | < 1e-05 | – | –
2 | C11G C16A C50G U65G | 0.000148 ± 5.2e-05 | – | – | –
3 | A14G U45C C50A | < 1e-05 | – | – | –
4 | C11U U31C G63A | < 1e-05 | < 1e-05 | – | –
5 | A15U G44A A48C C50G G59A | < 1e-05 | < 1e-05 | – | –
6 | C34G C50G | 0.00014 ± 5.7e-05 | 9.6e-05 ± 3.6e-05 | 5.61e-05 ± 2.4e-05 | –
7 | A33G G44U G62C | < 1e-05 | < 1e-05 | < 1e-05 | –
8 | A12C A33G A53C C68U | < 1e-05 | < 1e-05 | < 1e-05 | –
9 | G35A G44U U45G C71G | < 1e-05 | < 1e-05 | < 1e-05 | –
10 | A36G G38C U49G U55G C58G G59U | < 1e-05 | – | < 1e-05 | –
11 | A33C G41U G43A G44U | < 1e-05 | < 1e-05 | < 1e-05 | –
12 | A15C U49C C58G C61A | < 1e-05 | – | – | –
13 | G32A U49G C58G G63U U69G | 0.000279 ± 9.2e-05 | 0.000153 ± 3.7e-05 | – | –
14 | C11G U30A G40U | < 1e-05 | – | – | –
15 | G32C | 2.26e-05 ± 1.4e-06 | 5.77e-05 ± 1.3e-06 | – | 0.000103 ± 1.4e-06
16 | G13A G35C | < 1e-05 | – | – | –
17 | A14U U30G G40A | 0.000126 ± 3.6e-05 | 0.000424 ± 0.00014 | – | –
18 | A12C A33U G35U G51C | < 1e-05 | – | – | –
19 | G37A G43U G62U G66C C67A | < 1e-05 | < 1e-05 | – | < 1e-05
20 | G29U G43C U47A G63A | < 1e-05 | < 1e-05 | < 1e-05 | –
21 | C11U A14U | 0.000266 ± 3.5e-05 | 0.00104 ± 0.00013 | 9.95e-05 ± 1.2e-05 | 0.000984 ± 0.00014
22 | A15C C16U A33C C67G C70U | < 1e-05 | < 1e-05 | – | –
23 | C34U U49A U55G C61U C68G | 0.000585 ± 0.00016 | – | – | –
24 | A12C G37C G40C U56A U65G | < 1e-05 | < 1e-05 | – | –
25 | G35C U47A A48C | < 1e-05 | < 1e-05 | – | –
26 | G32A A39U G43A U49A | < 1e-05 | < 1e-05 | – | –
27 | U31G A42G G43C | < 1e-05 | < 1e-05 | < 1e-05 | –
